Reference: the supplement of paper PMC12889115
The other results are listed elsewhere or left out. Rule as the data show it: active = 25% or less and inactive = the rest. Repeats are few or missing, and single values can be far off.

Key:
[1] = test system: Salmonella enterica serovar Typhimurium SL1344; assay: bacterial growth OD600 after 18 h in MHB with 0.5 µg/mL polymyxin B; higher = more bacterial growth (less inhibition); conditions: 25 µM; polymyxin B 0.5 µg/mL; system: broth
Experimental: (§1)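 Secondary screen of the 553 primary hits at 25 µM. (i) S. Typhimurium SL1344 grown in Mueller-Hinton broth with 0.5 µg/mL polymyxin B, OD600 read after 18 h. (ii) SAFIRE assay: RAW 264.7 macrophages infected with S. Typhimurium sifB::gfp (MOI 30); compound added 2 h post-infection; cells fixed at 18 h; GFP-positive pixel fraction per macrophage imaged by confocal microscopy and expressed as % of DMSO control.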

[2] = test system: Salmonella enterica serovar Typhimurium SL1344; assay: intramacrophage bacterial GFP load (SAFIRE), percent of DMSO control (% of DMSO); higher = more intracellular bacteria (less inhibition); conditions: 25 µM; system: infected RAW 264.7 macrophages
Experimental: as §1
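For bacterial growth OD600 after 18 h in MHB with 0.5 µg/mL polymyxin B in this document: polymyxin B level opens the outer membrane while sparing the inner membrane, with novobiocin wells as reference growth inhibitor.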
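For intramacrophage bacterial GFP load (SAFIRE), percent of DMSO control in this document: compounds tested were the hits of an earlier 50 µM broth growth screen of a drug-like diversity library run with polymyxin B.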

Compound	bacterial growth OD600 [1]	intramacrophage bacterial GFP load [2]
COc1cccc(OC)c1-c1cnnc(NCCC2=CCCCC2)n1	0.001	inactive: 55.3
Clc1ccc(C2CCCN(Cc3nc(-c4ccccn4)no3)C2)cc1 (stereo not drawn)	0.03	active: 14.3
COc1cc([C@@H]2C[C@H]3CN(CCc4ccccc4)C(=O)[C@]34CCCN24)c(Cl)cc1O	0.001	active: 22.6
CCOC(=O)C1(Cc2ccccc2C)CCCN(S(=O)(=O)c2cccs2)C1 (stereo not drawn)	-0.002	inactive: 63.3
Cc1cc(-c2cc(F)cc3c2OC(CNC(=O)c2ccoc2)C3)ccc1F (stereo not drawn)	-0.004	inactive: 201
COc1cccc(C2c3[nH]c4ccccc4c3CCN2C(=O)c2nc(C)c[nH]2)c1 (stereo not drawn)	-0.002	inactive: 69.7
CO[C@H]1[C@H](NC(=O)c2ccccn2)c2ccccc2C12CCN(C(=O)c1ccc(CC(C)C)cc1)CC2	0.001	inactive: 46.3
CC(C)CCN(C)Cc1cnc(S(=O)(=O)C(C)C)n1CCc1ccccc1	0.011	active: 14.3
CN(C)c1ccc(CN2CCOc3ccc(C(C)(O)COc4ccccc4)cc3C2)cc1 (stereo not drawn)	0.003	active: 7.43
CN(Cc1cccc(C(F)(F)F)c1)C(=O)c1ccc2nc(C3CC3)oc2c1	0.003	inactive: 89.4
COCCCN1C(=O)CC(CC(=O)NCc2cc(F)cc(C(F)(F)F)c2)(c2ccccc2C)C1=O (stereo not drawn)	0.001	inactive: 122
CCOC(=O)C1(Cc2ccc(Cl)cc2)CCN(C(=O)c2ccc3nccnc3c2)CC1	0.003	inactive: 50.3
Cc1ccccc1-n1ncc2c1CC(C)(C)CC2NC(=O)CC(F)(F)F (stereo not drawn)	0.193	inactive: 121
C=CCO[C@H]1[C@H](NC(=O)CSC)c2ccccc2C12CCN(Cc1cc(CC(C)C)[nH]n1)CC2	0.589	active: 7.6
